# From the RNAGym collection of RNA variant scans (doi:10.7554/elife.90254)
# The source gives no read counts; variants with many changes may rest on few reads.
# B1: LINE1-mini (parent)
# chain: GGCAGAGCUCAACACAGCGUGGCAAAGUGGCUGUGGCUAGACUGCC
# Variants of: B1
# Assay: self-cleavage, relative activity (ratio to wild type); higher = more cleavage; in vitro, sequencing; the parent is a self-cleaving ribozyme
row,Variant,self-cleavage
1,CGCAUAGCUCAACAAAGCGUGGCCAAGUGGCUGUUGUUAGACUGCC [G1C G5U C15A A24C G35U C37U],0
2,GGAAGAGCUCAACACAGUGUGGCAAAGUAGCUGUGGCUAGACUGCC [C3A C18U G29A],1.64
3,GGCAGAGCUCAACACAGCGUGGCAAAGUGGCGGUGUCCAGACUGCC [U32G G36U U38C],0.01
4,GGCAGAGCUCAACACAGCGUGGUAAAGUGGCUACGGCUAUACUGCA [C23U G33A U34C G40U C46A],0.05
5,GGCAGAGCUCAACACUGCGUGGCAAAGUGGCUGAGGCCAGACUGCC [A16U U34A U38C],0.01
6,GGGAGAGCUCAACACAGCGUGGCUAAGUGGGUGUGGCUAGACUGCC [C3G A24U C31G],0.14
7,CGCAAAGCUCAACACAGCGUUGCAAAGUGGCCGUGGCUAGACUGCC [G1C G5A G21U U32C],0.01
8,GGCAGAGCUCAACACAGAGCGGCAAAGUGCCUGUGGCUAGACUGCC [C18A U20C G30C],0.58
9,GGCAGAGAUCAACACAGCUUGGCAAUGUGGCUGUGGCUAGACUGGC [C8A G19U A26U C45G],1.76
10,GGUAGAGCUCAACAAAGCGUGCCAAAGUGGCUGUGGCUUGACUGCC [C3U C15A G22C A39U],0.08
11,GGCCGAGCUCAACACGGCGUGGCAAUGUGGCUGUGUCUAGACUGCC [A4C A16G A26U G36U],0.08
12,GGCAGAGCUCAGCACAUCCUGGCAAAGUGGUUCUGGCUAGACUGCC [A12G G17U G19C C31U G33C],0.03
13,GGCAAAGCUCAAUACAGCGUGGCGAAGUGGCUGUGGCUAGACUGCC [G5A C13U A24G],0.15
14,GGCAGAGCUCAGCACAGCGUUGCAAAGAGGCUGUGGCUAGACUGCC [A12G G21U U28A],0.02
15,GGCAGAGCUCAACACAGCGGGGCAAAGUGGUUGUGGCCAGACUGCC [U20G C31U U38C],0.03
16,GGCAGAGCUCACCACAGCGUGACAAAAUGGCUGUGUCUAGCCUGCG [A12C G22A G27A G36U A41C C46G],0.01
17,GGCAGAGCGCAACACAGCGUGGCAAAGUGGUGGUGUCUAGGCUGCC [U9G C31U U32G G36U A41G],0.23
18,GGCAGAACUCAACACAGCCUGGCAAAGUGUCUGUGGCUAGACUGCC [G7A G19C G30U],0.06
19,GGCAGAGCUCUACACAGCGUGGCGAAGGGGCUGUGGCUAGACUGCC [A11U A24G U28G],0.09

row,Variant,self-cleavage
1,GUCAGAGUUCAACACAGCGGGGCAAGGUGGCUGUGGCUAGACUGCC [G2U C8U U20G A26G],0.02
2,UGCAGAGCGCAACACAGCGUGGCAAAAGGGCUGUGGAUAGACUGCC [G1U U9G G27A U28G C37A],0.03
3,GGCAGAGCUCAAUACAGCGUGGCUAAGUGGCUGUGGCUAGAUUGCC [C13U A24U C42U],0.1
4,GGCAGAGCUCAACACAGCGUAGCAAAUUGGCUGUGGCUAGAGUGCC [G21A G27U C42G],0.07
5,CGCAGAGCUCAGCAGAGCGUGGCACAUUCGCUGUCGCUAGACUGCC [G1C A12G C15G A25C G27U G29C G35C],0
6,GGCAGAGCUCAACACAGCGCGGCAAAGUGGCUGUGGCUGGAAUGCC [U20C A39G C42A],0.02
7,GGCAGAGCUCAACACAGUGUGGCAUAGUGGCUGAGGCUAGACUGCC [C18U A25U U34A],0.02
8,GGCAGAGUUCAACACAUCGUGGCAAAGUCGCUGUGGCUAGACUGCC [C8U G17U G29C],0.19
9,GGCAGAGCUCAACACAACGUGGCAAAGUCGCUGUGGCUAGACUGCA [G17A G29C C46A],0.03
10,GGCGGAACUCAACACAGCGUGGCAAAGUGGCUGUGGUUAGAGUGCC [A4G G7A C37U C42G],0.02
11,GGCAGGACUCAAAACAGCGUGGCAAAGUGUCUGUGGGUAGACUGCC [A6G G7A C13A G30U C37G],0.04
12,GGCAAAGCGCAACACAGCGCGGCAAAGUGGCUGUGGCCAGACUGUC [G5A U9G U20C U38C C45U],0.02
13,GGCAGAACUCAACACAUCGUGGCAAAGUGGCUGUGGCUAGUCUGCC [G7A G17U A41U],0.09
14,GGCAGAGAACAACACAGCGUGGCAAAGUGGCUGUGGCUAGACUGAC [C8A U9A C45A],0.33
15,GGUAGAGCUCAACACAGCGUGGCAAAGUGGCUGUGACUAGACUACC [C3U G36A G44A],0.04
16,GGCAGAGCUUAAAACAGCUUGGCAAGGUGGCUGUAGCUAGACUGCC [C10U C13A G19U A26G G35A],0.01
17,GCCAGAGCGCAACACAGCGUGGCAAAGUGGCUCUGGCUAGACUGCC [G2C U9G G33C],0.02
18,GGCAGAGCCCAAUACAGCGUGGCAAAGUGGCUGUGACUAGACUGCC [U9C C13U G36A],0.01
19,GGCAGAGGUCAAGACAGCGUGGCAAAGUGACUGUGGCGAGACUGCC [C8G C13G G30A U38G],0.24

row,Variant,self-cleavage
1,GCCAGUGCUCAACGGAGCGUGGCAAAGUUGCUGUGGCUAGACUGCC [G2C A6U A14G C15G G29U],0.04
2,GGCAGAGCUCACCACAUCGAGGCAAAGUGGCUGUGGCUAGACUGCC [A12C G17U U20A],0.04
3,GGCAGAGCUCAACACAGCGUGGCUAAGUGGCUGUGGCUAGAUUGUC [A24U C42U C45U],0.56
4,GUCAGAGCUCAAUACAGCGUGGCAAAGUGGCUGUGGCUUGAGUUCC [G2U C13U A39U C42G G44U],0.04
5,GGCAGAGCGCAAAACAGCGUGGCAAAGUGACUGUGGCUAUACUGCC [U9G C13A G30A G40U],0.08
6,GGCAAAGCUCAACACAGCUUGGUAAAGUGGGUGUGGCUAGACUGAC [G5A G19U C23U C31G C45A],0.18
7,GGCAGAGCUCAAUACAGCGUGGGAAAGUGUCUGUGGCUGGUCUGCC [C13U C23G G30U A39G A41U],0.05
8,GGCAGAGCUCAACACAGCUCGGCAAAGUGGUUGUGGCUAGACUGCG [G19U U20C C31U C46G],0.07
9,GGGAGAGCUCCACACAGCGUGGCAAAGUGGGUGUGGCUAGACUGCC [C3G A11C C31G],0.01
10,GGCAGAGCUCAACACAGGGUGGCAAAGCGGCUGUGGCUAGGCUGCC [C18G U28C A41G],0.07
11,GGCAGAGCUCAACUCAGCGUCGCAAAGUGGCCGUGGCUAGACUGCC [A14U G21C U32C],0.13
12,GGCAGAGCUCAACACAGCGUGGCAAAGUGGCUGCCGCAAGACUGCC [U34C G35C U38A],0
13,GGCAGAGCUCAACACACCGUGGGAAAGUGGCUGUGGCUAGCCUGCC [G17C C23G A41C],0.02
14,GGCAUAGCGCAACACAUCGUGACAAAGUGGCUGUGGCUAGUCUGGC [G5U U9G G17U G22A A41U C45G],0.03
15,GGCAAAGCCCAACACAGCGUGGCAAAGUGGCUGUGGCUAGACUGCA [G5A U9C C46A],0.04
16,GGCAGAACUCAACACAGGGUGGCAAAGGGGCUGUAGCUAGACUGUC [G7A C18G U28G G35A C45U],0.08
17,GGCAGAGCUCAACACAGCGUUGCGCAGUGGCUGUGGCUAGACUGCC [G21U A24G A25C],1.69
18,GGCAGAGCUCAUCACAGCGUGGGAAAGUGGCUGUGGCUCGACUGCC [A12U C23G A39C],0.03
